Here are results for four molecules from article PMC11592671.

Amino acid sequences for entries named in this document (tags omitted).
UniProt Q8WWY3: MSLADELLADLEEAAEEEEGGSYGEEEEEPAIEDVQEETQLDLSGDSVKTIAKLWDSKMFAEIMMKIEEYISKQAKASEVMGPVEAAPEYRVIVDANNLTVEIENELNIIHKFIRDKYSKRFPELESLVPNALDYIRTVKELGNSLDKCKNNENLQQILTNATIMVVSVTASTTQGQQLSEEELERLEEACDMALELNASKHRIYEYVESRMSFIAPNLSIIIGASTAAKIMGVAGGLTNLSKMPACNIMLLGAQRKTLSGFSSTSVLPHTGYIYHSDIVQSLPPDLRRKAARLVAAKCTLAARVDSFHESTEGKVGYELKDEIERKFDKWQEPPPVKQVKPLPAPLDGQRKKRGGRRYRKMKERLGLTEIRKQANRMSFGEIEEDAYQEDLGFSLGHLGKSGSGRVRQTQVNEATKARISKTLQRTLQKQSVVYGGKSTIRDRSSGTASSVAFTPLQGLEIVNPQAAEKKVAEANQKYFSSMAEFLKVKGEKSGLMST

Numbering of substitutions follows the chain as printed. Names and notes keep the numbering of the source. Results are given in words; binding and its absence hold for the method and conditions named. In cells and extracts the contact can be indirect. Some entries that bind do so weakly or less than the wild type. Tags and fused reporters may be left off the sequences shown.

Test [1] has as its target T1, harmonin-eCFP (USH1C protein harmonin) (UniProt Q9Y6N9).
T1 sequence: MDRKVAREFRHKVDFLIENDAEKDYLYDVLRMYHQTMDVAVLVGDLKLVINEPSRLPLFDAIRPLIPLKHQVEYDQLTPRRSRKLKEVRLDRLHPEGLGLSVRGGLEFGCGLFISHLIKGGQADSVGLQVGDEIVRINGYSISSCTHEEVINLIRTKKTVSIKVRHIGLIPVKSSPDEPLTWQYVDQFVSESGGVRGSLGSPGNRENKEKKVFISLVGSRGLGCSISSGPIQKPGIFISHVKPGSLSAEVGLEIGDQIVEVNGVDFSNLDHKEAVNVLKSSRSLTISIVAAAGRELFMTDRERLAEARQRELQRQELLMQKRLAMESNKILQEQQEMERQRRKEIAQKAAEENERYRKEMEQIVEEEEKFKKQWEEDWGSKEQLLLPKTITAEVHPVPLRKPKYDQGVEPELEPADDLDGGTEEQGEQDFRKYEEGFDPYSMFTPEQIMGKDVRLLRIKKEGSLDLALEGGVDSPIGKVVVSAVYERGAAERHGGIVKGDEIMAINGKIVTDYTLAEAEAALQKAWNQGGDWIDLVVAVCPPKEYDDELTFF
The experiment in a line: FRET or BRET; FRET acceptor photobleaching in the nucleus of fixed, co-transfected HeLa cells; eCFP donor, eYFP acceptor; FRET efficiencies normalized to 1 by the positive control eCFP-c-eYFP. For orientation: Bioluminescence resonance energy transfer reports proximity on the nanometre scale.

Test [2] deals with eCFP-PRPF31 (splicing factor PRPF31) (UniProt Q8WWY3). The description is as above.

B1: eYFP-ANKS4B (ankyrin repeat and SAM domain-containing protein 4B) (protein, UniProt Q8N8V4 1-417)
chain: MSTRYHQAASDSYLELLKEATKRDLNLSDEDGMTPTLLAAYHGNLEALEIICSRGGDPDRCDIWGNTPLHFAASNGHAHCVSFLVNFGANIFALDNDLQTPLDAAASREQNECVALLDKAATAQNIMNPKKVTRLKEQAQKNARRQIKECERLQEKHQNKMAHTYSKEESGTLSSSKGTFSRSSPSNASAPGTFGSLSKGIKDTFKIKFKKNKDTAEQVGKEGRSGQRNVMEVFREEEEDSFSGDFKEKLQLSAEEDGSVHHESILNRPGLGSIVFRRNRISSPEDISDSKREFGFKLPSELLQRQGASEADEGAADEEGEENGLKDDLPWDDDEVEWEEDVVDATPLEVFLLSQHLEEFLPIFKREQIDLEALLLCSDEDLQSIQMQLGPRKKVLNAINRRKQVLQQPGQLVDTSL
As for B1, the figures for the binding entry in test [1] and in test [2] were “binds” and “no binding”, respectively.

B2: eYFP-SANS (scaffold protein containing ankyrin repeats and SAM domain, USH1G protein), wild type (protein, UniProt Q495M9 1-461)
chain: MNDQYHRAARDGYLELLKEATRKELNAPDEDGMTPTLWAAYHGNLESLRLIVSRGGDPDKCDIWGNTPLHLAASNGHLHCLSFLVSFGANIWCLDNDYHTPLDMAAMKGHMECVRYLDSIAAKQSSLNPKLVGKLKDKAFREAERRIRECAKLQRRHHERMERRYRRELAERSDTLSFSSLTSSTLSRRLQHLALGSHLPYSQATLHGTARGKTKMQKKLERRKQGGEGTFKVSEDGRKSARSLSGLQLGSDVMFVRQGTYANPKEWGRAPLRDMFLSDEDSVSRATLAAEPAHSEVSTDSGHDSLFTRPGLGTMVFRRNYLSSGLHGLGREDGGLDGVGAPRGRLQSSPSLDDDSLGSANSLQDRSCGEELPWDELDLGLDEDLEPETSPLETFLASLHMEDFAALLRQEKIDLEALMLCSDLDLRSISVPLGPRKKILGAVRRRRQAMERPPALEDTEL
On to B2, for which the binding entry in test [1] and in test [2] was “binds” throughout.

B3: eYFP-SANS-K213E (ΔNLS_1^213–224) (protein, UniProt Q495M9 1-461)
chain: B2 chain with K213E
As to B3, the binding entry in test [1] is “binds”.

B4: eYFP-SANS-L195E (ΔNES_1^181–195) (protein, UniProt Q495M9 1-461)
chain: B2 chain with L195E
For B4, the binding result in test [1] and in test [2] was “binds” each time.
